# Measurements taken from PubChem BioAssay AID504332 (National Center for Advancing Translational Sciences (NCATS), 2011).
# About 31,000 (8.9%) of roughly 350,000 compounds were called active. The inconclusive results got no clear call from the source; some entries with a clear call stand among them for comparison. Calls come from the whole dose curve; as a rule, active = well fitted inhibition curve with a large enough effect; inconclusive = small, poorly fitted or top-dose-only effect; inactive = no such curve, though single readings can be large or run the other way. Where the call is inconclusive, the potency comes from a doubtful curve fit.
# Target: Histone-lysine N-methyltransferase EHMT2 (Homo sapiens) (UniProt Q96KQ7)
# UniProt Q96KQ7, sequence (Q96KQ7 whole entry, looked up): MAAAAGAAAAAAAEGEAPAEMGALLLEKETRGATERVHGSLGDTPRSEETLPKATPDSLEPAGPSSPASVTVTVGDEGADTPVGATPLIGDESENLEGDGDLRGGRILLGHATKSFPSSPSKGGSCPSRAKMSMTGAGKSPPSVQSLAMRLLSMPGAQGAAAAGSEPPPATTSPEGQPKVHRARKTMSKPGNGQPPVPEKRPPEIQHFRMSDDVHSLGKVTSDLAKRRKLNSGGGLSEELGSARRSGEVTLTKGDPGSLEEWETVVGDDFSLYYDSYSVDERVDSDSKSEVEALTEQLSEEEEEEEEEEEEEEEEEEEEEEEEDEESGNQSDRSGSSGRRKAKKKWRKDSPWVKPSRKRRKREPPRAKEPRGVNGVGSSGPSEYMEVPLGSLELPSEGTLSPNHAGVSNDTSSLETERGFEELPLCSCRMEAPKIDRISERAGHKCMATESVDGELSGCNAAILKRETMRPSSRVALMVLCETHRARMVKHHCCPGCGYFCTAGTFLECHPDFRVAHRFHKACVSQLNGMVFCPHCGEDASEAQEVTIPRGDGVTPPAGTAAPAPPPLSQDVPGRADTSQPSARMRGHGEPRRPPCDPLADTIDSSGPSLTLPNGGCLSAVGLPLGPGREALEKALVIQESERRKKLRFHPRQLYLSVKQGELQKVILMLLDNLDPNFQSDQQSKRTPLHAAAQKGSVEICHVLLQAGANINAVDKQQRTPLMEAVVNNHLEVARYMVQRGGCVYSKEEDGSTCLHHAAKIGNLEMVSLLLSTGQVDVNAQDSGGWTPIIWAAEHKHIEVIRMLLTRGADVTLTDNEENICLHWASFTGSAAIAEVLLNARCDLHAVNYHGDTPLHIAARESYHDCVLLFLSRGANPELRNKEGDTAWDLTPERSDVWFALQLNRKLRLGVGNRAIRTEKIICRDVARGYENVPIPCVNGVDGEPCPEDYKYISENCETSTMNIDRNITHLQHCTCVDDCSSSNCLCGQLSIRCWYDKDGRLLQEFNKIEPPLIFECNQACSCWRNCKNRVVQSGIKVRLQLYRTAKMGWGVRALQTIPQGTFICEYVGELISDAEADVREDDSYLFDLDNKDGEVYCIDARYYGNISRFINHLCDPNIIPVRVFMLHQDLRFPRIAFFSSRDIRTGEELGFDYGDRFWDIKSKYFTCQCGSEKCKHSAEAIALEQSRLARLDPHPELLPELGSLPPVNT
# Experiment: qHTS Assay for Inhibitors of Histone Lysine Methyltransferase G9a; note: nearly all actives have a fitted effect of over 75% in size
# Details: G9a H3K9 monomethylation, AlphaScreen, 2 h; activity, negative = inhibition: at 59 µM (top of the series) unless noted
# Outline: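 Readings reflect AlphaScreen signal from monomethyl-H3K9 antibody detection. HMT at 20 nM; substrate b-H3K9 500 nM; cofactor SAM 20 uM; 2 h RT reaction; compounds tested as titrations in qHTS with 15 min preincubation.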
# % is set by controls: 0 for no effect and ±100 for the full control effect; potency is the fitted concentration of half-maximal effect; tags give direction and shape of the fitted curve.
SMILES,"activity, negative = inhibition",Potency
CCOc1cccc(Nc2ccc([N+](=O)[O-])cn2)c1,inactive: -17.6% [at 0.501 µM],–
CCOC(=O)n1cc(-c2cnc(CNC(=O)C(C)(c3ccccc3)c3ccccc3)o2)c2ccccc21,–,active: 44.7 µM
CCn1c(SCC(=O)N2CCCC2)nnc1-c1ccc(N)cc1,–,active: 1.12 µM
O=C(NNC1CC(=O)N(c2cccc(Cl)c2)C1=O)c1cccs1 (stereo unspecified),–,"inconclusive: 39.8 µM [inhibitor, single point]"
O=S(=O)(c1cccc(-c2cn3cccnc3n2)c1)N1CCCCCC1,–,"inconclusive: 39.8 µM [inhibitor, single point]"
COc1cccc(CC(=O)Nc2cc(C(F)(F)F)ccc2N2CCCC2)c1,–,"inconclusive: 79.4 µM [inhibitor, single point]"
C[C@@H](C(=O)Nc1ccc2ccccc2c1)[C@@H]1C[C@@]1(C)[C@@H](NC(=O)c1cccnc1)c1ccccc1,–,active: 50.1 µM
CCOc1ccccc1CNC(=O)CCc1cn(CC)c2ccccc12,–,"inconclusive: 79.4 µM [inhibitor, single point]"
C=CCNC(=O)c1ccc(C2SCC(=O)N2Cc2ccccc2)cc1 (stereo unspecified),–,active: 50.1 µM
COc1cc(NC(=S)NCCCN2CCOCC2)c(OC)cc1Cl,–,"inconclusive: 89.1 µM [inhibitor, partial curve, poor fit]"
Cc1ccc(NC(=O)CCC(=O)OCC(F)(F)C(F)F)cc1,inactive: 11.2% [at 12.7 µM],–
CCn1c(=O)n(CC)c2cc(N)ccc21,–,"inconclusive: 56.2 µM [inhibitor, partial curve, poor fit]"
O=C(NCc1ccccc1)C(c1cccnc1)N(Cc1ccco1)C(=O)c1ccccn1 (stereo unspecified),–,"inconclusive: 79.4 µM [inhibitor, partial curve, poor fit]"
Cn1nnnc1SCc1ccccc1[N+](=O)[O-],–,inactive
CCOc1cc(C2Sc3ccccc3NC3=C2C(=O)c2ccccc23)ccc1O (stereo unspecified),–,active: 12.6 µM
COc1ccc(Nc2cc(C(=O)NCCCN(C)Cc3ccccc3)c3ccccc3n2)cc1,–,inactive
CCOC(=O)c1ccccc1NC(=O)CSc1nnc(Cc2cccn2C)n1-c1ccc(C)cc1,inconclusive: -69.4% [inhibitor],–
CCOC(=O)c1ccc(NC(=O)CC2C(=O)N(c3ccc(F)cc3)C(=O)N2Cc2ccc(C)cc2)cc1 (stereo unspecified),–,inactive
CC(=O)c1ccc(NC(=O)CCc2nc(-c3ccc(C)cc3)no2)cc1,–,"inconclusive: 15.8 µM [inhibitor, partial curve]"
COc1ccc(-n2ncc3c(SCC(=O)NNC(C)=O)ncnc32)cc1,–,"inconclusive: 0.224 µM [inhibitor, partial curve, poor fit]"
Brc1cccc(CN2CCCCCCC2)c1,–,active: 11.2 µM
O=C(CCC(=O)N1CCSc2ccccc21)NC1CCCCC1,–,inactive
COc1ccc(-c2nc(C#N)c(NCc3ccc(F)cc3)o2)cc1OC,inconclusive: -80.5% [inhibitor],–
Cc1ccc(-c2nnc(SCC(=O)NNC(=O)COc3cccc4ccccc34)n2C)cc1,–,"inconclusive: 2.24 µM [inhibitor, partial curve, poor fit]"

SMILES,"activity, negative = inhibition",Potency
CCN1CCN(c2nc(-c3ccc(F)cc3)cc(=O)[nH]2)CC1,–,inactive
CC(C)(C)c1ccc(/C=C/C(=O)N2CCN(c3ncccn3)CC2)cc1,–,inactive
O=C1/C(=C2\C(=O)N(Cc3ccc(F)cc3)c3ccccc32)SC(=S)N1CCS(=O)(=O)O,–,"inconclusive: 0.708 µM [inhibitor, full curve, poor fit]"
CC1CCN(c2oc(-c3ccc(COc4ccc(Cl)cc4)o3)nc2C#N)CC1,–,"inconclusive: 2.82 µM [inhibitor, full curve]"
Cc1ccc(S(=O)(=O)N2CCN(C(=O)CSc3nc4ccccc4c(=O)[nH]3)CC2)c(C)c1,–,"inconclusive: 20 µM [inhibitor, partial curve, poor fit]"
CCCCCSc1nncc(=O)[nH]1,–,"inconclusive: 8.91 µM [inhibitor, single point]"
CCn1c(C(c2ccccc2)c2ccccc2)n[nH]c1=S,–,active: 7.94 µM
CN1CCN(C(=O)c2ccc3c(c2)N(C)C(=O)/C(=C/c2cccc(Cl)c2)S3)CC1,–,"inconclusive: 89.1 µM [inhibitor, single point]"
CC1(O)C(=O)c2ccccc2N(c2ccccc2)C1=O (stereo unspecified),–,inactive
O=C(COC(=O)C1CCC1)Nc1ncc(Cl)cc1Cl,–,"inconclusive: 89.1 µM [inhibitor, partial curve, poor fit]"
CCOc1ccc(NC(=O)CCn2ccnc2)cc1,–,"inconclusive: 1.12 µM [inhibitor, partial curve, poor fit]"
CCc1cc2c(SCC(=O)N(CC)c3c(N)n(Cc4ccccc4)c(=O)[nH]c3=O)ncnc2s1,–,"inconclusive: 50.1 µM [inhibitor, partial curve]"
CCOc1ccc(C2N(c3cc(C)on3)C(=O)C3CCCN32)cc1OC (stereo unspecified),–,"inconclusive: 25.1 µM [inhibitor, single point]"
COc1ccc(C(=O)c2ccc(OC)c3cccc(O)c23)cc1OC,–,active: 56.2 µM
O=C(OCC#CCSc1nnc(-c2cccc3ccccc23)o1)c1ccc(Br)cc1,inactive: -2.19% [at 12.7 µM],–
CCCC(=O)NCc1ccncc1,–,inactive
CCOC(=O)c1c(NC(=O)CSc2nnc(-c3c[nH]c4ccccc34)n2C)sc2c1CCCC2,–,"inconclusive: 89.1 µM [inhibitor, single point]"
Cc1nnc(SCC(=O)NN2C(=O)NC3(CCCCC3)C2=O)s1,–,inactive
CCOC(=O)C1=C(C)N(c2ccc(Cl)cc2)C(=O)NC1c1cccc([N+](=O)[O-])c1 (stereo unspecified),–,"inconclusive: 79.4 µM [inhibitor, single point]"
O=c1ccccn1Cc1ccccc1F,–,"inconclusive: 89.1 µM [inhibitor, single point]"
CC(=O)CC1(O)C(=O)N(CN2CCN(c3ccccc3)CC2)c2ccccc21 (stereo unspecified),–,"inconclusive: 28.2 µM [inhibitor, full curve]"
CCOc1ccccc1CNC(=O)c1ccc(Cn2c(SCc3ccccc3)nc3cccnc32)cc1,–,inactive
O=C(COC(=O)C1c2ccccc2Oc2ccccc21)NC1CCS(=O)(=O)C1 (stereo unspecified),inactive: -13.4% [at 0.0925 µM],–
Cc1cccc(C)c1OCC(=O)N(Cc1cccs1)C1CCS(=O)(=O)C1 (stereo unspecified),–,"inconclusive: 35.5 µM [inhibitor, single point]"

SMILES,"activity, negative = inhibition",Potency
Fc1ccc(N2CCN(Cc3cccn3-c3nnc(N4CCN(C5CCCCC5)CC4)s3)CC2)cc1,–,"inconclusive: 25.1 µM [inhibitor, partial curve, poor fit]"
CCOC(=O)c1cc(-c2ccccc2)n(-c2cccc(C(=O)N(C)c3ccc(C)cc3)c2)c1C,–,active: 15.8 µM
O=[N+]([O-])c1cccc(-c2nc3ccc([N+](=O)[O-])cc3[nH]2)c1,–,active: 79.4 µM
CCc1ccccc1N(CC(=O)N/N=C/c1ccc(OC(=O)OC)c(OC)c1)S(C)(=O)=O,–,inactive
COc1ccc(-n2c(=O)c3c4c(sc3n3c(=S)[nH]nc23)COC(C(C)C)C4)cc1 (stereo unspecified),–,active: 8.91 µM
CCc1nn(CCCC(=O)N2CCN(c3cccc(C)c3C)CC2)c(=O)c2cc3occc3n12,–,active: 70.8 µM
CC(=O)NC(=O)COC(=O)/C=C/c1c(C)nn(Cc2c(Cl)cccc2Cl)c1Cl,–,"inconclusive: 0.158 µM [inhibitor, full curve, poor fit]"
CCc1ccccc1NC(=O)c1cc2c(Cl)nc3ccccc3c2s1,–,inactive
COc1ccccc1N1CCN(C(=O)/C=C/c2ccco2)CC1,–,"inconclusive: 20 µM [inhibitor, single point]"
Cc1cc(C)c2c(-n3cccc3)c(C(=O)O)sc2n1,–,"inconclusive: 25.1 µM [inhibitor, single point]"
CCc1cccc(CC)c1NC(=O)Cn1c(-c2ccccc2Cl)nc2ccccc21,–,"inconclusive: 22.4 µM [inhibitor, single point]"
COc1ccc(C(=O)C(CN2CCOCC2)c2ccccc2)cc1 (stereo unspecified),–,"inconclusive: 89.1 µM [inhibitor, single point]"
COc1cc(CN2CCC(C(=O)N3CCCC(C)C3)CC2)cc(Br)c1O (stereo unspecified),–,active: 7.94 µM
CN1CN(C)c2cccc3cccc1c23,–,active: 1.41 µM
O=C(/C(=N/N=C/c1ccc(O)c(O)c1O)c1ccccc1)c1ccccc1,–,active: 1.12 µM
COc1ccc(N2CCN(CCNC(=O)CCNS(=O)(=O)c3cccs3)CC2)cc1,–,"inconclusive: 5.62 µM [inhibitor, single point]"
Cc1ccccc1Cn1c(SCc2ccc(C(=O)NC3CCCC3)cc2)nc2ccncc21,–,"inconclusive: 15.8 µM [inhibitor, partial curve, poor fit]"
CCCSc1nc2sc3c(c2c(=O)n1-c1cccc(Br)c1)CC(C)(C)OC3,–,inactive
COc1ccc(NC(=S)N(CCN2CCOCC2)Cc2cc3cc4c(cc3[nH]c2=O)OCCO4)cc1,–,"inconclusive: 39.8 µM [inhibitor, partial curve, poor fit]"
COc1ccc([N+](=O)[O-])cc1NC(=O)CSc1nccc(C)n1,–,"inconclusive: 31.6 µM [inhibitor, single point]"
CC1CCN(C(=O)/C(=C\c2cccs2)NC(=O)c2ccccc2)CC1,–,"inconclusive: 44.7 µM [inhibitor, partial curve, poor fit]"
Cc1ccc(C(=O)NC(C)c2nnc(SCC(=O)NC3CCCC3)n2C)cc1 (stereo unspecified),–,inactive
COc1ccc2nc(SCC(=O)/C(C#N)=C(\C)N)[nH]c2c1,–,"inconclusive: 50.1 µM [inhibitor, partial curve, poor fit]"
